From article PMC4336329 (PLoS ONE, 2015)
Out of some 310,000 compounds screened, about 14,000 (4.5%) showed an effect of 50% or more. Effects have a minus sign here. This is one part of the list.

What follows are compounds tested against human ether-à-go-go-related gene (hERG) potassium channel (human, UniProt Q12809) (assay: primary screen, population patch clamp on CHO cells stably expressing hERG).
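Further: peak tail current of the secondary pulse compared with the same well before compound.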

human ether-à-go-go-related gene (hERG) potassium channel, sequence (Q12809 whole entry, looked up): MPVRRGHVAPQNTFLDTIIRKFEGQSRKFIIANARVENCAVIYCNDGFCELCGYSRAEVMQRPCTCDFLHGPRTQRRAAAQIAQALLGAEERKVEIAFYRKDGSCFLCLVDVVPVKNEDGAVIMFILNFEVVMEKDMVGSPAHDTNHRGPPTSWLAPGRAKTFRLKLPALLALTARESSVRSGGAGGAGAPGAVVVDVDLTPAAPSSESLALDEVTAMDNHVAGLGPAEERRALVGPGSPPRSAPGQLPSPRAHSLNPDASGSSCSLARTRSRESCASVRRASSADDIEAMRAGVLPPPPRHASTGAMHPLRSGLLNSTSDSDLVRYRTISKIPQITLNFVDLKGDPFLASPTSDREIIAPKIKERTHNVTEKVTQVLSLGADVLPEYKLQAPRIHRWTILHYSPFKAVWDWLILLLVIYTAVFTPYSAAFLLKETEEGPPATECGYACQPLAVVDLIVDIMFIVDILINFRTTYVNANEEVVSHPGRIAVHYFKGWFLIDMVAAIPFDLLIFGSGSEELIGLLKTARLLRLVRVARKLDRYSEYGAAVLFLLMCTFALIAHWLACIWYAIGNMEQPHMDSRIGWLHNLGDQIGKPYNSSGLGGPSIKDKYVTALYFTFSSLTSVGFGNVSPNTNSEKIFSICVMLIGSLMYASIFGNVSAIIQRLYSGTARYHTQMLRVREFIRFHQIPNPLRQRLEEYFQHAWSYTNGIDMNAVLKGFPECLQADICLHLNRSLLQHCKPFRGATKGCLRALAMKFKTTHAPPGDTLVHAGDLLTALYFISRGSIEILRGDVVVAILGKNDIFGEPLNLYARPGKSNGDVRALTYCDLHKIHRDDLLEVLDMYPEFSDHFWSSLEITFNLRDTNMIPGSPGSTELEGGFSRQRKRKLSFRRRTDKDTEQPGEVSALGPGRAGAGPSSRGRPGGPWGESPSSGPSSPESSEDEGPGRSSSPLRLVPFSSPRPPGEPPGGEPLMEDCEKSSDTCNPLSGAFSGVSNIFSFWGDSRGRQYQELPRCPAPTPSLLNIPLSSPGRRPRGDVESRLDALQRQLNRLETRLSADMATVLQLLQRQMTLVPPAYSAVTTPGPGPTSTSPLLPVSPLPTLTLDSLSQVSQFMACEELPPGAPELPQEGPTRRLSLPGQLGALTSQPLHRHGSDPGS

| Compound | hERG current change (%, negative = inhibition) at 10uM |
| --- | --- |
| O=c1c2ccccc2nc(/C=C/c2ccc(O)cc2)n1CCc1ccccc1 | -17.3% |
| Cc1ccc(Oc2ccccc2NC(=O)C2=COCCO2)cc1 | -9.32% |
| CCN(CC)S(=O)(=O)c1cc(NC(=O)COC(=O)Cn2cnc3ccccc32)ccc1C | 3.9% |
| O=C(Nc1nc(-c2ccc(S(=O)(=O)N3CCCC3)cc2)cs1)c1ccco1 | 4.72% |
| COc1ccc(C(=O)N2CCCC(c3nc(-c4cccs4)no3)C2)cc1OC (stereo not shown) | -23.4% |
| COc1cc(/C=N\Nc2cc(=O)n(C)c(=O)n2C)ccc1O | -9.27% |
| CCCCC(CC)C(=O)Nc1cccc(SC)c1 (stereo not shown) | -36.5% |
| N=c1c2c3c(sc2ncn1N)CCC3 | 1.66% |
| O=C(O)c1[nH]c2ccc([N+](=O)[O-])cc2c1-c1ccccc1 | -20% |
| O=C1Nc2ccc(S(=O)(=O)NCCC3=CCCCC3)c3cccc1c23 | 15% |
| O=C(N/N=C/c1ccc(OC(F)F)cc1)c1ccc(CSc2nc3ccccc3[nH]2)cc1 | -12.8% |
| CCN(CC(=O)Nc1ccc(NC(C)=O)cc1)C(=O)C1CCCC1 | -13.9% |
| COc1ccc(/C=N/NC(=O)c2ccoc2C)cc1OC | -9.75% |
| O=C(Cn1cncn1)NCCC(c1ccccc1)c1ccccc1 | 6.86% |
| CCSc1nnc2ccc(-c3ccc(OC)c(OC)c3)nn12 | -27.3% |
| COc1ccccc1C(=O)NC(=O)COC(=O)C1CC2CCCC(C1)C2=O (stereo not shown) | -3.13% |
| O=C(N/N=C/c1c(O)n(CCc2ccccc2)c(=O)[nH]c1=O)c1ccncc1 | 7.9% |
| COc1ccc(/C(=N/O)C(C)(C)NO)cc1.Cl | 11.3% |
| CCc1c(C)nc2cc(-c3ccc(OC)cc3)[nH]n2c1=O | -10.4% |
| O=C1OCC2=C1C(c1ccc(F)cc1)Sc1ccccc1N2 (stereo not shown) | 14.5% |
| CCC(C)(C)NC(=O)C(c1ccccc1Cl)N(C(=O)CCC(=O)Nc1cc(C)on1)C1CC1 (stereo not shown) | 1.77% |
| Cc1ccc2cc(CN(C(=O)c3cccnc3)C(C)C)c(=O)[nH]c2c1 | -8.03% |
| O=C(NN1CCOCC1)c1ccccc1Br | 16.3% |

| Compound | hERG current change (%, negative = inhibition) at 10uM |
| --- | --- |
| COCc1nnc(NC(C)=O)s1 | 22% |
| O=C(CC1SC(=Nc2ccccc2)N(CCCO)C1=O)Nc1ccc(Cl)cc1 (stereo not shown) | -20% |
| CC(C)Cn1c(N)c(C(=O)COC(=O)c2cccnc2Cl)c(=O)n(C)c1=O | -31.7% |
| COc1ccc(OCC(O)CN2CCCC2)cc1 (stereo not shown) | 15.2% |
| CC(C)CNC(=O)NC(=O)COC(=O)Cn1cnc2ccccc2c1=O | 6.46% |
| Cc1nc2c(C)cccc2cc1C(=O)N/N=C/c1cccc([N+](=O)[O-])c1 | -2.92% |
| Clc1ccccc1CNc1nc2ccccc2n2cnnc12 | -7.72% |
| N#Cc1ccc(CN2CCN(C(=O)CC(NC(=O)c3ccccc3)c3ccccc3)CC2)cc1 (stereo not shown) | -81.2% |
| Cc1oc(S(=O)(=O)N2CCCCC2)cc1NC(=O)Nc1ccccc1 | 8.12% |
| CC1CCCC(C)N1C(=O)Cn1nnc(-c2ccc([N+](=O)[O-])cc2)n1 (stereo not shown) | -40.9% |
| CCOC(=O)CCNC(=O)N1CCCC(C(=O)c2cc(C)c(OC)c(C)c2)C1 (stereo not shown) | 5.81% |
| CCOC(=O)c1nnn(-c2nonc2N)c1-c1ccc(Br)cc1 | 14.6% |
| CCCCCC(O)CCC(=O)NNC1=CC(=O)CC(C)(C)C1 (stereo not shown) | 13.9% |
| CCOCC(=O)Nc1c(C(=O)Nc2ccc3c(c2)OCO3)oc2ccccc12 | 20.9% |
| O=C(CCC(=O)Nc1ccc(Br)cc1)N/N=C/c1ccccc1O | 2.33% |
| Nc1nnc(-c2cccc([N+](=O)[O-])c2)o1 | 16.8% |
| CCOC(=O)c1cc(CC)sc1/N=C/c1c(O)ccc2ccccc12 | -9.45% |
| COCCNC(=O)/C(C#N)=C/c1cc(C)n(C2CCCCC2)c1C | -0.875% |
| CCOCCCNC(=S)Nc1cc(C)cc(C)c1 | 11% |
| CCOC(=O)C(Cc1c[nH]c2ccccc12)NC(=O)c1ccco1 (stereo not shown) | 1.55% |
| O=C(c1ccccc1)N1CCC(CC2CC(c3cccc(Br)c3)=NO2)(C(=O)NCC2CCCCC2)CC1 (stereo not shown) | -1.49% |
| COc1ccc2cc(C#N)c(N3CCOCC3)nc2c1 | -8.84% |
| CCOC(=O)c1c(S(=O)(=O)N2CCCCC2C)c(C)n(C)c1C (stereo not shown) | 8.39% |
